The record followed here is the supplement of paper PMC9446081.

The whole screen tested about 39,000 compounds, of which about 220 (0.56%) showed activity. Some of the results follow.
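Also: static incubation at 37 °C against the wild-type strain, values averaged over two biological replicates.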

The assay relates to Escherichia coli K-12 BW25113. In words: relative growth (OD600 normalised to plate interquartile mean) (fraction); higher = less growth inhibition, active = 0.2 or less. The note with it: 50 µM; LB; incubation time: overnight (16-24 h).
In the case of `C[C@@H]1CN([C@H](C)CO)C(=O)c2cc(NC(=O)Cc3ccccc3)ccc2O[C@H]1CN(C)C(=O)Nc1cccc2ccccc12`, the relative growth is inactive: 0.995.

With `COc1ccc(Cc2c(O)[nH]c(N)nc2=O)cc1`, the relative growth is inactive: 0.996.

Consider `C[C@H](CO)N1C[C@H](C)[C@@H](CN(C)C(=O)Nc2ccccc2)Oc2ccc(NC(=O)Nc3cccc4ccccc34)cc2C1=O`, for which the relative growth is inactive: 1.01.

On to `C[C@@H]1CN([C@H](C)CO)C(=O)c2c(c3ccccc3n2C)-c2ccccc2CO[C@@H]1CN(C)Cc1cccc(C(=O)O)c1`, for which the relative growth is inactive: 0.987.

With `COc1cccc(S(=O)(=O)N(C)C[C@H]2Oc3cc(C4=CCCC4)ccc3S(=O)(=O)N([C@H](C)CO)C[C@@H]2C)c1`, the relative growth was inactive: 0.98.

For `C[C@@H]1CN([C@H](C)CO)C(=O)Cc2cc(NC(=O)CCCCCC(=O)Nc3ccccc3N)ccc2O[C@@H]1CN(C)C(=O)Nc1ccc(C(F)(F)F)cc1`, the relative growth is inactive: 1.02.

For the molecule `Cc1cccc(Nc2ccncc2S(=O)(=O)NC(=O)NC(C)C)c1`, the relative growth is inactive: 1.14.

For `CCN1[C@@H]2c3ccc(-c4ccncc4)c(=O)n3C[C@H]1[C@H](CO)[C@H]2C(=O)NCCc1cn(C)cn1`, the relative growth was inactive: 0.99.

Take `Nc1ncnc2c1c(-c1ccc(Cl)cc1)nn2-c1cccc(-c2cnnn2Cc2cccc(-c3ccccc3)c2)c1`: the relative growth is inactive: 1.05.

On to `C[C@H](CO)N1C[C@H](C)[C@@H](CN(C)Cc2ccc(C(=O)O)cc2)Oc2ccc(NC(=O)c3ccncc3)cc2C1=O`, for which the relative growth is inactive: 0.992.

Consider `C[C@@H]1CN([C@@H](C)CO)C(=O)c2ccccc2-c2ccccc2CO[C@@H]1CN(C)Cc1cccc2c1OCCCO2`, for which the relative growth is inactive: 0.989.

As for `O=C1NC(=O)[C@@]2(CCOc3ccc(F)cc32)N1`, the relative growth is inactive: 0.972.

On to `C[C@@H]1CN([C@@H](C)CO)C(=O)c2cccc(NC(=O)C3CCOCC3)c2O[C@H]1CN(C)C(=O)Nc1ccccc1`, for which the relative growth is inactive: 0.982.

In the case of `COc1ccc(NC(=O)N(C)C[C@H]2Oc3c(NS(=O)(=O)c4cn(C)cn4)cccc3C(=O)N([C@@H](C)CO)C[C@@H]2C)cc1`, the relative growth is inactive: 0.995.

As for `C[C@H]1CCCCO[C@H](CN(C)S(=O)(=O)c2cn(C)cn2)[C@@H](C)CN([C@@H](C)CO)C(=O)c2cc(NC(=O)CCCN(C)C)ccc2O1`, the relative growth is inactive: 1.02.

Turning to `Nc1nnnn1/N=C/c1ccco1`, the relative growth is inactive: 0.998.

Take `CO[C@H]1CN(C)C(=O)c2ccc(NS(=O)(=O)c3cn(C)cn3)cc2OC[C@H](C)N(CCC(F)(F)F)C[C@@H]1C`: the relative growth was inactive: 1.

On to `C[C@@H]1CCCCO[C@H](CN(C)C(=O)NC2CCCCC2)[C@H](C)CN([C@H](C)CO)C(=O)c2cc(NS(=O)(=O)c3ccccc3)ccc2O1`, for which the relative growth is inactive: 0.993.

Turning to `CCS(=O)(=O)Nc1ccc2c(c1)C(=O)N(C)[C@@H]1CC[C@H](CC(=O)NCc3ccccc3F)O[C@H]1CO2`, the relative growth was inactive: 1.01.

On to `C[C@H](NC(=O)C[C@H]1CC[C@H](NC(=O)CN2CCOCC2)[C@H](CO)O1)c1ccccc1`, for which the relative growth was inactive: 0.979.

As for `CNC[C@H]1Oc2ccc(NC(=O)Cn3cnnn3)cc2CC(=O)N([C@H](C)CO)C[C@@H]1C`, the relative growth is inactive: 1.

Consider `O=C(O)CCCCC1SCC2NC(=O)NC21` (configuration not stated), for which the relative growth is inactive: 1.

Turning to `CO[C@@H]1CN(C)C(=O)c2ccc(NC(=O)Nc3ccccc3Cl)cc2OC[C@@H](C)N(Cc2ccccc2C(=O)O)C[C@H]1C`, the relative growth is inactive: 0.972.

`CCn1c(=O)cc(N2CCC(C)CC2)[nH]c1=O`: the relative growth was inactive: 1.02.

For the molecule `CC(=O)Oc1ccccc1C(=O)Nc1ccccc1`, the relative growth is inactive: 0.937.

Take `Cc1noc(C)c1NC(=O)N(C)C[C@H]1Oc2c(NC(=O)c3ccncc3)cccc2C(=O)N([C@H](C)CO)C[C@@H]1C`: the relative growth is inactive: 0.989.

`CO[C@@H]1CN(C)C(=O)c2cc(NC(=O)c3ccccc3)ccc2OC[C@@H](C)N(C(=O)CN(C)C)C[C@@H]1C`: the relative growth was inactive: 0.926.

Take `COc1cc(NS(=O)(=O)c2ccc(N)cc2)nc(OC)n1`: the relative growth is inactive: 1.15.

For `C[C@@H]1CN([C@H](C)CO)C(=O)c2cc(C#Cc3ccccc3)cnc2O[C@@H]1CN(C)S(=O)(=O)c1ccccc1F`, the relative growth is inactive: 1.03.

In the case of `C[C@@H]1CN([C@H](C)CO)C(=O)c2ccccc2-c2ccccc2CO[C@@H]1CN(C)Cc1cccc2c1OCCCO2`, the relative growth was inactive: 1.01.

As to `C[C@H]1CCCCO[C@@H](CN(C)C(=O)Nc2cccc3ccccc23)[C@@H](C)CN([C@@H](C)CO)C(=O)c2cc(NS(=O)(=O)c3ccc(F)cc3)ccc2O1`, the relative growth was inactive: 1.

Take `O=C(C[C@H]1CC[C@H]2[C@@H](COC[C@@H](O)CN2Cc2cc(F)ccc2F)O1)N[C@@H]1CCN(Cc2ccccc2)C1`: the relative growth was inactive: 1.01.

For `C[C@@H]1CCCCO[C@@H](CN(C)C(=O)C2CCCCC2)[C@H](C)CN([C@@H](C)CO)C(=O)c2cc(NC(=O)Nc3ccccc3)ccc2O1`, the relative growth is inactive: 1.03.

Consider `CCCC#Cc1cnc2c(c1)C(=O)N([C@@H](C)CO)C[C@@H](C)[C@H](CN(C)S(=O)(=O)c1cccc(OC)c1)O2`, for which the relative growth is inactive: 1.08.

`COCC#Cc1ccc([C@H]2[C@H](CO)N3C(=O)CN(C(=O)c4ccncc4)C[C@@H]23)cc1`: the relative growth is inactive: 0.987.

With `C[C@H](CO)N1C[C@H](C)[C@@H](CN(C)S(C)(=O)=O)Oc2c(cccc2N(C)C)C1=O`, the relative growth was inactive: 1.01.

`CC(C)NC(=O)N(C)C[C@@H]1Oc2ccc(NC(=O)CCCN(C)C)cc2C(=O)N([C@H](C)CO)C[C@H]1C`: the relative growth is inactive: 1.02.

On to `COc1ccc(cc1)NC(=O)N1C[C@]2(C1)CN([C@@H](CO)c1[nH]c3cc(ccc3c12)OC)C(=O)CN1CCOCC1`, for which the relative growth is inactive: 0.981.

For `CCN(CCO)C(=O)C1CN(C(C)=O)C1`, the relative growth is inactive: 1.01.

For the molecule `C[C@@H]1CN([C@@H](C)CO)C(=O)c2cc(NC(=O)CCCN(C)C)ccc2O[C@@H]1CN(C)S(=O)(=O)c1cn(C)cn1`, the relative growth is inactive: 0.978.

As for `COc1ccc(CNC(=O)N(C)C[C@H]2OCc3ccccc3-c3c(n(C)c4ccccc34)C(=O)N([C@H](C)CO)C[C@H]2C)cc1`, the relative growth was inactive: 1.01.

In the case of `C[C@@H](Sc1nc(N)cc(N)n1)C(=O)O`, the relative growth is inactive: 0.986.
